Data taken from PubChem BioAssay AID488969 (Vanderbilt High Throughput Screening Facility, 2010).
Over roughly 110,000 compounds, “z-score” has its median near -0.1; the highest 2% begin near 2. Some of the results follow.

These compounds were tested against Metabotropic glutamate receptor 8 (Rattus norvegicus) (UniProt P70579) (assay: rat mGluR8 modulators via GIRK flux, primary screen, cell-based, thallium flux, HTS (AID 488969)). Conditions: HEK293 rat mGluR8, GIRK (G protein-gated inwardly rectifying potassium channel) thallium flux, FluoZin2; at 10 µM; stronger effect = higher value; submaximal glutamate (EC20) added with thallium.
UniProt P70579, sequence (P70579 whole entry, looked up): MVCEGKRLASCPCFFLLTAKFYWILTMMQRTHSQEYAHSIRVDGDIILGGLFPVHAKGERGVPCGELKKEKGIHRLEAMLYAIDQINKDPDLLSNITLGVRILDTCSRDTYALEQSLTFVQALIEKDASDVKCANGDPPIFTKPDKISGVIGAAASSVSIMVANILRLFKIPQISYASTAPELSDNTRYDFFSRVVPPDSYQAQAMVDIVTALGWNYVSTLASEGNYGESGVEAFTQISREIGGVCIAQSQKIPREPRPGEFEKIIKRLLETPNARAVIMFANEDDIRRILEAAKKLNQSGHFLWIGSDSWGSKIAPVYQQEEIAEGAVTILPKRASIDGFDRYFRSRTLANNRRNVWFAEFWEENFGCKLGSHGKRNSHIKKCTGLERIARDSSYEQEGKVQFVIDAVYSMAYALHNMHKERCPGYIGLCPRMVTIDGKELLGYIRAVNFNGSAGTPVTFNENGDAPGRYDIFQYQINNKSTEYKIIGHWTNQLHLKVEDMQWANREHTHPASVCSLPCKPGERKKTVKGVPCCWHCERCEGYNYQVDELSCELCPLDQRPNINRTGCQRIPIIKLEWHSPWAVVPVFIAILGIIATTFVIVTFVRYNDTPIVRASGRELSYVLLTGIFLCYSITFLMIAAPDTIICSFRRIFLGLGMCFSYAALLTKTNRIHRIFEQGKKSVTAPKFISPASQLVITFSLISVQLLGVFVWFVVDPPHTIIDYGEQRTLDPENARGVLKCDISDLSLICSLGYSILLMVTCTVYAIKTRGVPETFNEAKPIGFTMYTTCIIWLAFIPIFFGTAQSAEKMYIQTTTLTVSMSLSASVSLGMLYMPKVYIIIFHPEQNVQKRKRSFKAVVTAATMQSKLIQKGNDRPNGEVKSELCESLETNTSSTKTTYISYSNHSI

| SMILES | z-score |
| --- | --- |
| COc1cc(C2NC(C(=O)O)Cc3c2[nH]c2ccccc32)cc(OC)c1OC (configuration not stated) | -0.234 |
| Cc1cc(C)n(-c2nnc(C)n2/N=C/c2ccco2)n1 | 1.04 |
| CC1CCCCN1C(=O)N[C@@H](Cc1ccccc1)C(=O)O (some centres not stated) | -0.3 |
| NNC(=O)c1ccc(Cl)cc1Cl | -0.0992 |
| Cc1cc(C(=O)Nc2sc3c(c2C#N)CCC(C)C3)cs1 (configuration not stated) | 0.144 |
| CS(=O)(=O)N(CC(=O)N1CCCC1)Cc1ccc(Cl)cc1 | -0.52 |
| COC(=O)c1ccc(NC(=O)C(=O)N2CCN(C(=S)Nc3ccc(OC)cc3)CC2)cc1 | -0.0415 |
| CCCC(C(=O)NC1CCCC1)N(CC1CCCO1)C(=O)c1snc(C(N)=O)c1N (configuration not stated) | -0.243 |
| CC(NC(=O)CSc1nc2c(c(C(F)(F)F)n1)CCc1ccccc1-2)c1ccccc1 (configuration not stated) | 0.0834 |
| Cn1nnc2cc(C(=O)NCc3ccco3)ccc21 | 0.326 |
| Cc1cc(OCC(=O)NC(C)C)cc(C)c1Cl | -0.16 |
| CCOc1ccc(C(=O)NCC(=O)OCc2csc(-c3ccccc3)n2)cc1 | -0.162 |
| O=C(CSc1nnc(-c2ccccc2)c(-c2ccccc2)n1)N1CCOCC1 | 0.388 |
| CCn1nc(C)c(NS(=O)(=O)c2ccc(C)cc2)c1C | 0.741 |
| COc1cc(C2C(Oc3ccccc3C)C(=O)N2Cc2ccc(F)cc2)cc(OC)c1OC (configuration not stated) | -0.106 |
| CCc1c(C)sc(NC(=O)c2ccc(Br)o2)c1C(=O)OC | -0.376 |
| COc1ccc(-c2noc(CCC(=O)NCCN(C)Cc3ccccc3)n2)cc1 | 0.311 |
| Fc1ccccc1CSc1nncn1NCc1cccs1 | 0.114 |
| CCCNC(=O)c1ccc(N(Cc2ccccc2)S(C)(=O)=O)cc1 | -0.332 |

| SMILES | z-score |
| --- | --- |
| COc1ccc(N2C(=O)C(Cl)=C(Nc3ccccc3O)C2=O)cc1 | -0.162 |
| Cc1ccc(-n2ncc3c(=O)[nH]cnc32)c(C)c1 | 1.35 |
| O=C1c2ccccc2C(O)N1c1cccnc1 (configuration not stated) | -0.0998 |
| Cc1cc(C)n(-c2ccc(-n3ccnc3)nn2)n1 | -0.0693 |
| Cc1ccc(-n2nc(CN3CCOCC3)c(-c3ccccc3)c2N)cc1Cl | -0.672 |
| CCCCn1c(/N=C/c2ccc(N(C)C)cc2)nc2ccccc21 | -0.34 |
| COc1cc2nc(-c3ccc(Br)o3)oc(=O)c2cc1OC | -1.58 |
| Cc1c(NC(=O)c2cccs2)cccc1-c1nc2ccccc2s1 | -0.476 |
| C/C(=N\S(=O)(=O)c1ccc(C)cc1)N1CCN(S(=O)(=O)c2ccccc2)C1C(C)C (configuration not stated) | -0.0878 |
| Oc1c(C(c2cccs2)N2CCN(c3ccccc3)CC2)sc2ncnn12 (configuration not stated) | 0.429 |
| C=CCNc1oc(Cc2cccc3ccccc23)nc1C#N | -0.633 |
| Cc1ccnc(Sc2nc3c(c(=O)[nH]c(=O)n3C)n2CCCc2ccccc2)n1 | 0.29 |
| OCCNC(=S)Nc1ccc(Cl)c(Cl)c1 | 0.296 |
| COC(=O)c1cccc(NC(=O)CN2CCN(Cc3ccccc3)CC2)c1 | -0.223 |
| COc1ccc(CCN2CN(S(=O)(=O)c3ccccc3)c3nc4ccccc4nc32)cc1OC | -0.948 |
| COc1ccc(OC)c(-n2c(-c3cccc(O)c3)n[nH]c2=S)c1 | -0.429 |
| Cc1nn(C)c(Cl)c1NC(=O)OCc1ccccc1 | -0.064 |
| Cc1ccc2nc(-c3ccc(NC(=S)NCCC(C)C)cc3)sc2c1 | 0.169 |
| Cn1c(=O)cc(SCC(=O)Nc2ccc3c(c2)OCO3)c2ccccc21 | -0.276 |

| SMILES | z-score |
| --- | --- |
| Cc1ccc(N=Nc2c(=O)[nH]n3c(=O)cc(C)[nH]c23)cc1 | -0.491 |
| CN1CCN(C(=O)c2cc(-c3ccco3)on2)CC1 | -0.486 |
| Cc1ccccc1NC(=O)CSc1nnnn1C | -0.213 |
| COc1cnc(SCc2c(Cl)cccc2Cl)nc1Cl | 0.0106 |
| Cc1ccc2c(c1)N(CC(=O)NCc1cccnc1)C(=O)CO2 | -0.0749 |
| COc1ccccc1-c1csc(Cc2nnc3n2CCCCC3)n1 | -0.152 |
| CCOc1c(Br)cc(CNc2ccc3c(c2)OCCO3)cc1OC | 0.0844 |
| O=[N+]([O-])c1ccc(O)c(/C=N/n2cnc3ccccc32)c1 | -0.812 |
| Cn1c(NCc2ccccc2)nc2c1c(=O)n(Cc1ccccc1)c(=O)n2C | -0.0134 |
| CC(=O)Nc1ccc2c(c1)nc(CN1CCCC1)n2C | 0.268 |
| [O-][n+]1c2c(nn1-c1ccccc1Cl)-c1nonc1CC2 | 1.15 |
| CC1CC1c1ccc(/C=C(\C#N)C(=O)Nc2cc(Cl)ccc2Cl)o1 (configuration not stated) | -0.184 |
| CC1CCN(CC(=O)Nc2ccccc2Sc2ccccc2)CC1 | 0.156 |
| CC1=Nn2c(nnc2-c2ccccc2F)SC1 | -0.0427 |
| CC(C(=O)N1CCN(C)CC1)N1C(=O)c2ccccc2C1=O (configuration not stated) | -0.255 |
| COCCNC(=O)c1ccccc1NS(=O)(=O)c1ccc(C)c([N+](=O)[O-])c1 | -0.243 |
| Cc1ccc(C(=O)CN(C(=O)c2ccc(Cl)c(Cl)c2)N2C(=O)C3CCCCC3C2=O)cc1 (configuration not stated) | -0.0228 |
| Nc1nonc1C(=O)NCCN=Cc1ccccc1O | -0.0696 |
| COc1ccc(Cl)cc1S(=O)(=O)N1CCN(CC(=O)C(C)(C)C)CC1 | -0.0402 |
